This passage reports binding signal results from PMC12136788.

Numbering of substitutions follows the chain as printed. This is one part of the list.

To fix the notation:
T1: UNK ZnF1-3 (human, UniProt Q9C0B0 31-174)
T1 sequence: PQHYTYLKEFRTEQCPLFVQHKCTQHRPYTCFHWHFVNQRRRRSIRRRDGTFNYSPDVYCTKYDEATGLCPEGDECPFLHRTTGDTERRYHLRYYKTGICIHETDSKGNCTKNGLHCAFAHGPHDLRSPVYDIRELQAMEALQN

B1: chr17:61910164:61910165:-_ENSG00000108604_ENST00000448276|hu_hu|motif|central (ssRNA)
RNA: GGGAGUUCUACAGUCCGACGAUCAAGUAUAAGGCUUUGGGGACCAAGCAACAAGGAAUCCUAUCACUACAUUUAUAAGACGGAAGCUGGAGAGUAGAGGGUGACAGCAGACACUCCUCACCCCAGCCUACGUGUCUGCGGCCCCAACAGAGGAUUGAGCAUCA
B2: chr22:19452774:19452775:-_ENSG00000070010_ENST00000399523|hu_hu|hu_hu_hu_mus_False|18_68 (ssRNA)
RNA: GGGAGUUCUACAGUCCGACGAUCCUUCUCAUUGUAGUUGAUAGCAAUCACAUCUCCAGUCGUCAGACAGGCAAAGUUUCUCAAUGCAUUUUCUAAUACCGCUUUAGGGUUGGUAAUGUCCAGGAAGUCUGGGCUCUGAGGCUGCAACAGAGGAUUGAGCAUCA
B3: chr8:11181129:11181130:+_ENSG00000104643_ENST00000221086|hu_hu|FALSE|FALSE (ssRNA)
RNA: GGGAGUUCUACAGUCCGACGAUCCAGUGCAUCUCUGGUUUAAGAAAACCUAUUUGUAGCUUGAUUAUAAUAAAUUAACUCUAUUCUAGAUGAUGGUUUAAUUUUACAAGCAGCAUUUGAAACACAUUGUAUAUGUAUGCUCAACAACAGAGGAUUGAGCAUCA
B4: chr6:44221449:44221450:+_ENSG00000096384_ENST00000371646|hu_mus|FALSE|FALSE (ssRNA)
RNA: GGGAGUUCUACAGUCCGACGAUCAACCCUGCUAUUCUGUGGGAGGGGAUCUUCCUGCCUUAAGGCACAGGACAGGAUAGAAGAUUCUUGUAGACAUGAGCAGAGAGCCAGGUGGGUCAGGGCUGCUGGGGGAGCCACGGGGAUCAACAGAGGAUUGAGCAUCA
B5: chrX:69798090:69798091:-_ENSMUSG00000031343_ENSMUST00000055966|mus_mus|mus_mus_mus_hu_False|18_78 (ssRNA)
RNA: GGGAGUUCUACAGUCCGACGAUCAAGUCCCCGGGUUCUUGUCGUCUUGAUUCCCCUUGGCUAGUGGUUCCAGGGAGAAUAUUAAUCAGGAAAAGAAUCCCAAGGCUGGUCAUGUAAAAGUGCCACAUUUGUGUGAUUAUCAUCCAACAGAGGAUUGAGCAUCA
B6: chr5:179004091:179004092:+_ENSG00000176783_ENST00000393438|hu_mus|FALSE|FALSE (ssRNA)
RNA: GGGAGUUCUACAGUCCGACGAUCUUCAUGCUCUCUGCCGCUGUCAAGAUCCUGUGCGUCCUUCAGACAGAGAGAGAAGUCAAUCACCCCGACCUGAGAAUCCAAGUCUUCUCCCUUUAAGCAGAGGUUGGCAUCCAGAACGUUCAACAGAGGAUUGAGCAUCA
B7: chr1:245023758:245023759:-_ENSG00000153187_ENST00000283179|hu_hu|FALSE|FALSE (ssRNA)
RNA: GGGAGUUCUACAGUCCGACGAUCAGCAAAACUCUCCAUUGUAAGGGAAGAAGCACUGAGACGAUCUCUUGAUAUUUUAAAAUGUAGAUCACAAUUAUAAGUAUCAAGACAAACCACUGUGUCAUCGAAGUGUUCAUCUUCUUCCAACAGAGGAUUGAGCAUCA
B8: chr17:62499352:62499353:-_ENSG00000108654_ENST00000581693|hu_mus|motif|central (ssRNA)
RNA: GGGAGUUCUACAGUCCGACGAUCUCUUAUUUGAUCCACAAUUUUCCUUAUCUGGGGUUCAAAUCCCAUAUCAAGCAUCCGGUCAGCUUCAUCAAGGACAAGGUAAGUUGUUCUUCUCAGAUUGGUUUUCCCACACUCUAAAAACAACAGAGGAUUGAGCAUCA
B9: chr7:54825262:54825263:-_ENSG00000132432_ENST00000352861|hu_hu|hu_hu_hu_mus_False|28_28 (ssRNA)
RNA: GGGAGUUCUACAGUCCGACGAUCCUGCCGGCUGGGCUCCACAAACUGCAUUACCUGAUCCAUGUUUGUUGGAUGGCGGAUUGAGAGCGUAGAGACACGUAGCUCAGGGAGCUUGCUAGCCCAACGGAACCGGAAGCUGGCAACCAACAGAGGAUUGAGCAUCA
B10: chr17:65740002:65740003:+_ENSG00000130935_ENST00000581375|hu_hu|hu_hu_hu_mus_False|48_48 (ssRNA)
RNA: GGGAGUUCUACAGUCCGACGAUCAACAAAUCUUUCUUCCCUGGACGAACAGGAAGAUUCAUAUUAAAAAAAAUAUAUAUCCAUCAAGGAGAAUUGAGUGGCCACACCUUUACUCCCAGCACUUUGGGAGGUGGAUCUCUGAGUCAACAGAGGAUUGAGCAUCA
B11: chr22:32879901:32879902:+_ENSG00000100225_ENST00000397426|hu_mus|hu_hu_hu_mus_False|8_18 (ssRNA)
RNA: GGGAGUUCUACAGUCCGACGAUCCUCUUCCAUACUCAUGGCAUCCUGAAUUGACUCAGCUUCAACAUUUUGACUAGGCCCUUCCAUACUGUCAUCAGUCCAGGCAUCAAAUGGGGUUGCCUGUCCUUGGAAUGAAUCAGUCCCCAACAGAGGAUUGAGCAUCA
B12: chr12:39763582:39763583:-_ENSG00000139116_ENST00000544797|hu_mus|hu_hu_hu_mus_False|1_18 (ssRNA)
RNA: GGGAGUUCUACAGUCCGACGAUCCUCUAGGAACUGGGCAUUCACUUUGAAUUCAGGAGGGGGCAGCCCGUUUUUAAUCGCUGAGGUCUUUUUCUCAUCAAUACUCUUGAACAGGUGUUUAACAGCUCGAGAGAUGAUACCCAGCAACAGAGGAUUGAGCAUCA
B13: chrX:69798090:69798091:-_ENSMUSG00000031343_ENSMUST00000055966|mus_mus|FALSE|FALSE (ssRNA)
RNA: B5 RNA with G32A, U81C, A91G, U97G, C98U, C99A, G103C, G104U, U112C, G113A
B14: chr18:34480306:34480307:+_ENSMUSG00000005871_ENSMUST00000115781|mus_mus|motif|central (ssRNA)
RNA: GGGAGUUCUACAGUCCGACGAUCCUUUUACUUCUAACAUUAAUUUCUUAAAACAUGAAUUAAAAGGCAAUUGUAUUCGGACGGAAACCUCAUCUCUUUCCACAAAACUACUUGAAGUGCCUUAUAAAAACUGACGUGCAGUAACAACAGAGGAUUGAGCAUCA
B15: chr19:6374144:6374145:+_ENSMUSG00000024949_ENSMUST00000113487|mus_hu|FALSE|FALSE (ssRNA)
RNA: GGGAGUUCUACAGUCCGACGAUCGGGUCCAUUGGGGUUGUGCUGCAUGGGAUGUCCACCAUGCCCACCUGUCAGGCUGGGUAAUGGGUGUGGGAAGCUGUGGGGGCCACCUCCGGGCCCACCAGGACCACCUCCAUGCAUGCCCAACAGAGGAUUGAGCAUCA
B16: chr5:108714581:108714582:-_ENSG00000198961_ENST00000361557|hu_mus|motif|central (ssRNA)
RNA: GGGAGUUCUACAGUCCGACGAUCUGACAGGUCAGCGUAGAUCUCUGCCUCUCCAUUUUCCAGCUCAAAGACUGCACGGCCGGACCCCUUCUGAUGUCUACCACCUUCCACAGCUUCAGCGCCAAGUUGAAGAGAGCCAUUCUCCAACAGAGGAUUGAGCAUCA
B17: chr3:176767854:176767855:-_ENSG00000177565_ENST00000430069|hu_hu|hu_hu_hu_mus_False|78_78 (ssRNA)
RNA: GGGAGUUCUACAGUCCGACGAUCGACAUCCUUGUUACUGGGCACGUCCUGCCCUCCUUCUCGUAUACAGUGUCUAAGCACGAGCUGCGUAGGGCCACUCGUGCUGUUCUCACUGAGGUUCCAGAUUCUUGCCGUGGAGUCUCCCAACAGAGGAUUGAGCAUCA
B18: chr16:83842930:83842931:+_ENSG00000230989_ENST00000433866|hu_hu|motif|central (ssRNA)
RNA: GGGAGUUCUACAGUCCGACGAUCUUCUUCCACCCCAGCCUGUGUCAUGAGGUCCGCGAUAUUCUUUUCCAGAUCAUCAAUGCGACGGCUCAUAUCAUCAAUUCUCCCAAUGAUCUGGUCAGACAUGGUCUGAAAUUUAUCUUGCAACAGAGGAUUGAGCAUCA
B19: chr5:139724684:139724685:+_ENSMUSG00000036817_ENSMUST00000110883|mus_mus|FALSE|FALSE (ssRNA)
RNA: GGGAGUUCUACAGUCCGACGAUCGCCUGGAAACCUGCCAGCCUAUCUGCUUCUUGACUUUAUGCAUUCAAGCAAAUCCCUAAGUCAAAAGGAGUGUCCGAGAAUCAUACAUUCAAAUGAAUUAAAAAAGCCUCCCCGGCUUUUCAACAGAGGAUUGAGCAUCA
B20: chr18:56819859:56819860:+_ENSG00000166562_ENST00000588875|hu_mus|hu_hu_hu_mus_True|88_108 (ssRNA)
RNA: GGGAGUUCUACAGUCCGACGAUCAACUUUGAUUACUCUGUGAACUAUUGGAAUGUCUCUUCCUUCAACCUUAAAAACAACUAUUUCACCAGCUCUGAUGGGGUCCUCCCGGAAAUUCGUGAGGAACAGCAGAUCUCCUCUGUGCAACAGAGGAUUGAGCAUCA
B21: chr9:31209820:31209821:+_ENSMUSG00000042185_ENSMUST00000086167|mus_hu|motif|central (ssRNA)
RNA: GGGAGUUCUACAGUCCGACGAUCUUCUUGCUUACAGAAGGCCUGAUCUUUGGUCUCUAGCCAUAGCUGGAAGAGGGCAGCGGAUUCCUUUUCAUUAUCUUGGGAUUGGCCAAGCAACUUCCACUGCUGGGUUUUCUCUUUGAACAACAGAGGAUUGAGCAUCA
B22: chrX:71549400:71549401:+_ENSMUSG00000019087_ENSMUST00000019231|mus_hu|mus_mus_mus_hu_False|1_1 (ssRNA)
RNA: GGGAGUUCUACAGUCCGACGAUCGCAGUAGGAAGAGGGAAGCUCUUCAGUCCAGUGCGCUGCAGGGUGGGAAAGCAACAACACGGACACCGUCCCACCCUCAACCCCCCCACUGGCACAGGGUCACACAAUCUGGGAAGUGAUCAACAGAGGAUUGAGCAUCA

This assay addresses T1, UNK ZnF1-3. Description: nsRBNS (natural sequence RNA bind-n-seq); RBNS binding buffer (assumed for nsRBNS): 25 mM Tris pH 7.5, 150 mM KCl, 3 mM MgCl2, 0.01% Triton X-100, 500 ug/ml BSA, 20 U/ml SUPERase-In, 4 C; UNK is unkempt and MSI1 is Musashi-1; names of the RNAs are library labels; protein concentration not given here; high values mean tight binding.
B1 yielded a binding signal of 0.88 enrichment R.
As for B2, the figure is 0.865 enrichment R; as for B3, 0.743 enrichment R.
Consider B4, for which the binding signal is 1.94 enrichment R.
As for B5, the figure is 0.571 enrichment R; as for B6, 1.12 enrichment R; as for B7, 1.77 enrichment R.
As for B8, the figure is 0.744 enrichment R.
As for B9, the figure is 1.31 enrichment R.
Take B10: the binding signal is 1.75 enrichment R.
As for B11, the figure is 1 enrichment R; as for B12, 1.56 enrichment R.
The value for B13 was 0.872 enrichment R; that for B14 was 0.749 enrichment R.
As for B15, the figure is 0.663 enrichment R; as for B16, 1.13 enrichment R; as for B17, 0.355 enrichment R.
Consider B18, for which the binding signal stood at 0.55 enrichment R.
As for B19, the figure is 0.951 enrichment R.
The value for B20 was 0.76 enrichment R; that for B21 was 0.595 enrichment R.
As for B22, the figure is 1.43 enrichment R.
